{
  "source": "paper PMC4336329",
  "about": "(PLoS ONE, 2015)",
  "note": "About 14,000 (4.5%) of roughly 310,000 compounds showed an effect of 50% or more. Effects have a minus sign here. Some of the results follow.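 Further: peak tail current of the secondary pulse compared with the same well before compound.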",
  "data": [
    {"target": "human ether-à-go-go-related gene (hERG) potassium channel (human, UniProt Q12809)", "sequence (Q12809 whole entry, looked up)": "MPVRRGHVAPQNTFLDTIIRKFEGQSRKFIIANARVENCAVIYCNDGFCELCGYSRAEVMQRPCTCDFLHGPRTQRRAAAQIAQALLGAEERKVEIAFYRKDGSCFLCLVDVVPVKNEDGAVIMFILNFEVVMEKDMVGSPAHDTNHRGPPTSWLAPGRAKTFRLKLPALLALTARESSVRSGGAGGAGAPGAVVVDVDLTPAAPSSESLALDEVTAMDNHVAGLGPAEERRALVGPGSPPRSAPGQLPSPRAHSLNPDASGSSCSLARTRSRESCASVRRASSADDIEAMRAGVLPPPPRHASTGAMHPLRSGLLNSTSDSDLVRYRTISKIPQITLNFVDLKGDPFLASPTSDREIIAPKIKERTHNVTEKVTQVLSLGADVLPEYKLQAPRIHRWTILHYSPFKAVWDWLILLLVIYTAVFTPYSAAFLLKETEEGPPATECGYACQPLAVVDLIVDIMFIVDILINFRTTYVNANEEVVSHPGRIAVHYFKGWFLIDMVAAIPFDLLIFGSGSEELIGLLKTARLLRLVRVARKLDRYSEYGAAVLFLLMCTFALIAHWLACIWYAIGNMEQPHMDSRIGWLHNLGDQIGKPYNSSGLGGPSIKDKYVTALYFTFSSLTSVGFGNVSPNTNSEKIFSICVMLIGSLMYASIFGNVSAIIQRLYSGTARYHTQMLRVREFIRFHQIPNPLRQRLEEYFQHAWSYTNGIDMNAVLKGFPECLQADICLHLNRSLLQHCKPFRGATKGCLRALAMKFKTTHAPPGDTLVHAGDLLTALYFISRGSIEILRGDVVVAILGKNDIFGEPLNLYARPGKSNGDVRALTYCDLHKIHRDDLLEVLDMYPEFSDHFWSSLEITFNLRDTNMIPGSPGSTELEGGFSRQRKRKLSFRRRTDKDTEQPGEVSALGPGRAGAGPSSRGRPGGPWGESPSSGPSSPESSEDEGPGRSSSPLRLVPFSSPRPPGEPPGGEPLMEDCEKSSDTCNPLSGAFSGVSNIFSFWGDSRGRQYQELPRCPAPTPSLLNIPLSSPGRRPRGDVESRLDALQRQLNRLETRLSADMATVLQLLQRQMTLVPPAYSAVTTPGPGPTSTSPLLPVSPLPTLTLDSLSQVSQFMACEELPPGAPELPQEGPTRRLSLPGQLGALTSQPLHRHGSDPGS", "experiment": "primary screen, population patch clamp on CHO cells stably expressing hERG", "units": {"hERG current change (%, negative = inhibition) at 10uM": "%"}, "values": [
      {"smiles": "Cn1c(SCC(=O)N2CCN(c3ccccc3)CC2)nnc1-c1ccncc1", "hERG current change (%, negative = inhibition) at 10uM": -19.5},
      {"smiles": "O=S(=O)(NCc1cc(-c2ccccc2)no1)c1ccccc1", "hERG current change (%, negative = inhibition) at 10uM": 2.73},
      {"smiles": "CN1CCN(S(=O)(=O)c2cccc(S(=O)(=O)c3ccc(Cl)c(Cl)c3)c2)CC1", "hERG current change (%, negative = inhibition) at 10uM": -12.6},
      {"smiles": "COc1cccc(N2CCN(C(=O)NC3CCCCC3)CC2)c1", "hERG current change (%, negative = inhibition) at 10uM": 2.57},
      {"smiles": "COc1cc(C2C(C#N)=C(N)Oc3cc4c(cc32)OCO4)cc(OC)c1OC", "note": "(centres unmarked)", "hERG current change (%, negative = inhibition) at 10uM": 7.61},
      {"smiles": "CC[C@@H]1C(=O)OC[C@@H]1Cc1cncn1C.Cl", "hERG current change (%, negative = inhibition) at 10uM": -7.8},
      {"smiles": "O=C(CSC1=NCCN1)NC(c1ccccc1)c1ccccc1", "hERG current change (%, negative = inhibition) at 10uM": -21.8},
      {"smiles": "CC1CCC(C(C)C)C(OC(=O)C[n+]2cccc(C(N)=O)c2)C1.[Cl-]", "note": "(centres unmarked)", "hERG current change (%, negative = inhibition) at 10uM": 7.66},
      {"smiles": "COc1cccc(-c2nnc(-c3ccc(C(F)(F)F)cc3)o2)c1OC", "hERG current change (%, negative = inhibition) at 10uM": -0.804},
      {"smiles": "O=C(Nc1nnc(S(=O)(=O)N2CCCCC2)s1)c1cccc(Br)c1", "hERG current change (%, negative = inhibition) at 10uM": 5.98},
      {"smiles": "C/C(N)=C(/C#N)C(=O)COC(=O)c1ccccc1Oc1ccccc1", "hERG current change (%, negative = inhibition) at 10uM": -25.2},
      {"smiles": "Cc1c(S(=O)(=O)N2CC(C)CC(C)C2)c(=O)n(C)c(=O)n1C", "note": "(centres unmarked)", "hERG current change (%, negative = inhibition) at 10uM": 4.19},
      {"smiles": "Cc1cccc(N2CCN(Cc3nc(-c4cccc(Oc5ccccc5)c4)oc3C)CC2)n1", "hERG current change (%, negative = inhibition) at 10uM": 4.13},
      {"smiles": "N#C/C(=N/Nc1ccc(S(=O)(=O)N2CCOCC2)cc1)C(N)=O", "hERG current change (%, negative = inhibition) at 10uM": 3.46},
      {"smiles": "COc1ccc(N2C(=O)C3ON(C4SC(=S)N(C)C4(C)C)C(c4ccc([N+](=O)[O-])cc4)C3C2=O)cc1", "note": "(centres unmarked)", "hERG current change (%, negative = inhibition) at 10uM": 13.4},
      {"smiles": "Cc1ccc(/C=N/n2c(-c3cccnc3)n[nH]c2=S)s1", "hERG current change (%, negative = inhibition) at 10uM": 6.3},
      {"smiles": "O=C(CCCn1c(=O)[nH]c2cc(Cl)ccc2c1=O)NC1CCCCCCC1", "hERG current change (%, negative = inhibition) at 10uM": 3.76},
      {"smiles": "COc1ccc2oc(C(=O)OC/C(O)=C(\\C#N)c3nc4ccccc4[nH]3)c(C)c2c1", "hERG current change (%, negative = inhibition) at 10uM": -1.11},
      {"smiles": "COC(=O)C1=C(c2ccc(-c3ccccc3)c(F)c2)C[C@@H]2CC[C@H]1N2C(=O)NCCOc1ccc(OC)cc1", "hERG current change (%, negative = inhibition) at 10uM": 14.7},
      {"smiles": "COC(=O)C1=C(c2ccccc2OCc2ccccc2)C[C@@H]2CC[C@H]1N2C(=O)NCc1ccc(Br)cc1", "hERG current change (%, negative = inhibition) at 10uM": 6.55},
      {"smiles": "CN(/N=C/c1ccc(Br)o1)C1=NS(=O)(=O)c2ccccc21", "hERG current change (%, negative = inhibition) at 10uM": 7.33},
      {"smiles": "CCCn1c(=O)c(C(=O)NCc2ccccc2OC)c(O)c2ccccc21", "hERG current change (%, negative = inhibition) at 10uM": 18.1},
      {"smiles": "Cc1nc2ccc(F)cc2cc1C(=O)Nc1cccc(Cl)c1C", "hERG current change (%, negative = inhibition) at 10uM": 17.2},
      {"smiles": "CCCCN1C(=O)C(=O)N(CC(=O)c2cc(C)n(C3CC3)c2C)C1=O", "hERG current change (%, negative = inhibition) at 10uM": -10.1},
      {"smiles": "CCC(=O)N(C)/C=C1\\Sc2ccccc2C1=O", "hERG current change (%, negative = inhibition) at 10uM": -1.74},
      {"smiles": "CC(C)Oc1ccc(NC(N)=O)cc1", "hERG current change (%, negative = inhibition) at 10uM": 1.14},
      {"smiles": "Cc1ccccc1-n1nnnc1-c1ccccc1", "hERG current change (%, negative = inhibition) at 10uM": -11.6},
      {"smiles": "O=c1c2ccccc2c(/C=N/c2ncn[nH]2)c(O)n1Cc1ccccc1", "hERG current change (%, negative = inhibition) at 10uM": 11.3},
      {"smiles": "O=c1[nH]oc2cc(Cl)ccc12", "hERG current change (%, negative = inhibition) at 10uM": 11.3},
      {"smiles": "O=C(C1CC1)N1N=C2CCCCC2C1(O)C(F)(F)F", "note": "(centres unmarked)", "hERG current change (%, negative = inhibition) at 10uM": 33.6},
      {"smiles": "COc1ccc(N2CC(O)=C(c3nc(-c4ccc(F)cc4)cs3)C2=N)cc1Cl", "hERG current change (%, negative = inhibition) at 10uM": 4.03},
      {"smiles": "COc1ccc([C@@H]2C(C#N)=C(N)S[C@@H](c3ccccc3)[C@@H]2[N+](=O)[O-])cc1", "hERG current change (%, negative = inhibition) at 10uM": -13.4},
      {"smiles": "Cc1nccc(-c2cccc(N/N=C(\\C#N)C(=O)c3ccccc3)c2)n1", "hERG current change (%, negative = inhibition) at 10uM": -6.62},
      {"smiles": "N#Cc1ccc(OCC(=O)Nc2cccc(S(=O)(=O)NC3=NCCCCC3)c2)cc1", "hERG current change (%, negative = inhibition) at 10uM": -19.9},
      {"smiles": "CCOc1ccc(-c2cc(C(=O)N/N=C(\\C)c3cccnc3)c3ccccc3n2)cc1", "hERG current change (%, negative = inhibition) at 10uM": 10.6},
      {"smiles": "O=C(NCc1ccc(OC(F)(F)F)cc1)C1CC(c2ccc(C(F)(F)F)cc2)=NO1", "note": "(centres unmarked)", "hERG current change (%, negative = inhibition) at 10uM": 9.59},
      {"smiles": "CN(C)S(=O)(=O)c1cccc(NC(=O)c2ccc3c(c2)OCCO3)c1", "hERG current change (%, negative = inhibition) at 10uM": 5.56},
      {"smiles": "CO/N=C/NC(=O)NOCc1ncc(C(F)(F)F)cc1Cl", "hERG current change (%, negative = inhibition) at 10uM": 0.271},
      {"smiles": "COc1ccc(N2CCN(CCCNC(=O)CN3C(=O)COc4ccccc43)CC2)cc1", "hERG current change (%, negative = inhibition) at 10uM": -35.2},
      {"smiles": "COc1ccccc1/C=N/NC(=O)c1ccc(N(C)S(=O)(=O)c2ccccc2)cc1", "hERG current change (%, negative = inhibition) at 10uM": -4.39},
      {"smiles": "O=C(CN(CCc1ccccc1)C(=O)c1csnn1)NC1CCCC1", "hERG current change (%, negative = inhibition) at 10uM": -4.71},
      {"smiles": "C/C(=N\\O)C(=O)NCc1ccncc1", "hERG current change (%, negative = inhibition) at 10uM": 13},
      {"smiles": "CCOC(=O)C(Cc1ccccc1)C(=O)c1ccco1", "note": "(centres unmarked)", "hERG current change (%, negative = inhibition) at 10uM": 8.4},
      {"smiles": "COc1ccc(C(=O)Nc2nnc(-c3ccccc3)o2)cc1OC", "hERG current change (%, negative = inhibition) at 10uM": 2.94}
    ]}
  ]
}
